Results published in PubChem BioAssay AID540317 (National Center for Advancing Translational Sciences (NCATS), 2011).
The campaign covered roughly 390,000 compounds. About 2,200 (0.56%) were called active. This list was built around the results that the source calls inconclusive (neither active nor inactive); the mix of calls is not that of the screen. Calls come from the whole dose curve; as a rule, active = well fitted inhibition curve with a large enough effect; inconclusive = small, poorly fitted or top-dose-only effect; inactive = no such curve, though single readings can be large or run the other way. Potencies beside an inconclusive call are fits to weak or partial responses and may not hold up.

Each molecule was assayed against Chromobox protein homolog 1 (Homo sapiens) (UniProt P83916) (assay: HTS for Inhibitors of HP1-beta Chromodomain Interactions with Methylated Histone Tails). Settings: AlphaScreen HP1-beta / biotin-H3K9me3 peptide binding; series mostly up to 114 µM.
UniProt P83916, sequence (P83916 whole entry, looked up, the tested form may be a part): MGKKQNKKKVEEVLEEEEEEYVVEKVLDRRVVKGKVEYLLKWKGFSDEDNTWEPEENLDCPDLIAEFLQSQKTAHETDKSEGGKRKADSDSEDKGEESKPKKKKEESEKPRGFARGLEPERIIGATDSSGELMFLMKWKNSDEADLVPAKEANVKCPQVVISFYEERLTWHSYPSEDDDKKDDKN
Source text: As our understanding of epigenetics expands, it is becoming clear that players in this field are potential targets for drug development. This area of epigenetic therapy has established applications for the treatment of cancer and neurological diseases. We have been involved in this field for a number of years and have performed high-throughput screens to identify the first small molecule inhibitors of protein methyltransferases. These methyltransferases target multiple substrates, and thus regulate many arms of an epigenetic pathway. The methylation of different substrates often generates docking sites for effector proteins that harbor binding domains (chromo, tudor, PHD, MBT and ANK repeats). It has been proposed that the binding sites generated for different proteins by these post-translational modifcations mediate downstream effects on chromatin. Consistent with this theory, di- and tri-methylation of histone H3K9 facilitates the binding of heterochromatin protein HP1. The HP1 protein harbors a chromodomain that is responsible for the methyl-dependent interaction between HP1 and lysine 9 of histone H3. HP1 was first described in flies as a heterochromatin associated protein that can regulate gene silencing. It harbors a chromodomain that binds H3K9me3. In addition, it harbors a chromoshadow domain that interacts with a large number of proteins that are involved in heterochromatin formation and gene repression. There are three highly related HP1 isoforms. All three variants are associated with pericentric heterochromatin and it is not clear whether they have specific or redundant functions. MPP8 is also involved in the repression of gene in euchromatic regions (unpublished data) and like HP1 its chromodomain binds H3K9me3. MPP8 harbors an ankyrin repeat region that is likely involved in binding and recruiting interacting proteins with transcriptional repressive function, much like the chromoshadow domain of HP1 does. We hypothesize that by inhibiting specific protein-protein interactions we will be able to develop compounds that block a single arm of an epigenetic pathway. The specificity attained by blocking a single protein-protein interaction will be far greater than that attained by blocking the enzyme that regulates one of many interactions. Low-affinity protein-protein interactions (Kd in the single- to double-digit micromolar range) such as those discussed here have been very difficult to assay by traditional techniques such as fluorescence polarization or fluorescence resonance energy transfer. We have developed a sensitive chemiluminescence-based assay (Quinn, et al. 2009), which serves as the starting point for this project. The following is a validation assay to identify lead compounds that can block methyl-dependent protein-protein interactions (specifically HP1-beta), which can be used as probes to analyze these methyl-driven interactions and perhaps even developed into targeted epigenetic therapies. NIH Chemical Genomics Center [NCGC] NIH Molecular Libraries Probe Centers Network [MLPCN] MLPCN Grant: DA031087 Assay Submitter (PI): Mark Bedford, University of Texas, Medical Anderson Cancer Center, TX
To each well, 2 uL of HP1-beta protein (final 50 nM) and 1 uL biotinylated histone peptide trimethylated at Lys9 [b-H3(1-18)K9me3] (final 50 nM) was added in 1x PBS buffer, pH 7.4, containing 0.01% Tween-20 using a nanoliter dispenser. Formation of a protein-peptide complex proceeded at room temperature for 30 min. A Kalypsys pin-tool was employed to transfer 23 nL of library compound solution in DMSO to each well. Aurintricarboxylic acid (ATA) was used as an intraplate control with a 12-point titration in duplicate. Following a 30 min incubation of the protein-peptide complex with compounds at room temperature, a mixture of 40 ug/mL each streptavidin-coated donor and nickel chelate acceptor AlphaScreen beads (final 10 ug/mL) was added in a 1 uL dispense for a final volume of 4 uL. […]
Note: nearly all actives have a fitted effect of over 70% in size.
Potency is the fitted concentration of half-maximal effect; tags give direction and shape of the fitted curve.

Q: O=C(NC(Cc1c[nH]c2ccccc12)C(=O)N/N=C/c1ccc(Cl)cc1)c1cccs1 (stereo unspecified) was tested. Which Potency did it give?
A: inconclusive: 31.6 µM [inhibitor, full curve]

Q: O=S(=O)(c1ccc(Cl)cc1)N1CCC(N2CCCCCC2)CC1 was tested. Which Potency did it give?
A: inconclusive: 50.1 µM [inhibitor, partial curve]

Q: Which Potency does the source give for CCN(CC)c1ccc(/C=C2\C(=O)c3ccc(C(=O)O)cc3C2=O)cc1 here?
A: active: 39.8 µM

Q: COc1ccc(Br)cc1CN1CCCCCCC1 was tested. Which Potency did it give?
A: inconclusive: 56.2 µM [inhibitor, partial curve]

Q: How did the Potency turn out when O=C(COC(=O)c1c(F)cccc1F)Nc1ccc2c(c1)OCO2 was run?
A: inactive

Q: CCOc1cc(CNc2ccc(N3CCN(C(C)=O)CC3)cc2)cc(Br)c1OC was tested. Which Potency did it give?
A: inconclusive: 50.1 µM [inhibitor, partial curve]

Q: CC1CCN(CCCCOc2ccc(C(C)(C)C)cc2)CC1 was tested. Which Potency did it give?
A: inconclusive: 56.2 µM [inhibitor, partial curve, poor fit]

Q: With Cc1[nH]c2ccc(-c3n[nH]c(=S)n3-c3ccccc3)cc2c1C as the molecule, how does the Potency read?
A: inconclusive: 39.8 µM [inhibitor, single point]

Q: Which Potency does the source give for Cc1ccccc1NC(=O)CSc1cn(CC(=O)N(C(C)C)C(C)C)c2ccccc12 here?
A: inactive

Q: With CCN1C(=O)Nc2cccc3cccc1c23 as the molecule, how does the Potency read?
A: inconclusive: 39.8 µM [inhibitor, single point]

Q: With O=C(Cn1nc(Cc2ccncc2)c2ccccc2c1=O)Nc1cccnc1Cl as the molecule, how does the Potency read?
A: inactive

Q: How did the Potency turn out when Cn1cc(CNC(=O)c2cc(-c3ccc(Br)cc3)nc3ccccc23)cn1 was run?
A: inactive

Q: With Cc1ccccc1S(=O)(=O)Cc1ccc(C(=O)NC2CC2)o1 as the molecule, how does the Potency read?
A: inactive

Q: CC1CCN(CCOCCSc2ccc(Cl)cc2)CC1 was tested. Which Potency did it give?
A: inconclusive: 50.1 µM [inhibitor, partial curve, poor fit]

Q: Which Potency does the source give for CCSC1=C(C#N)C(c2cccc(OC)c2)CC(=O)N1 (stereo unspecified) here?
A: inactive

Q: For CCN(CC)S(=O)(=O)c1ccc2c(c1)C(=NO)c1cc(S(=O)(=O)N(CC)CC)ccc1-2, which Potency is on record?
A: inactive

Q: Which Potency does the source give for NNc1ccccc1C(F)(F)F here?
A: inconclusive: 89.1 µM [inhibitor, single point]

Q: How did the Potency turn out when Cc1[nH]c2c(ccc3cccnc32)c1C was run?
A: inconclusive: 50.1 µM [inhibitor, partial curve]

Q: For CC(C)(C)c1ccc(CNc2cc(N3CCOCC3)ccc2[N+](=O)[O-])cc1, which Potency is on record?
A: inconclusive: 25.1 µM [inhibitor, partial curve]

Q: O=[N+]([O-])c1ccccc1N=NNc1ccccc1 was tested. Which Potency did it give?
A: inconclusive: 14.1 µM [inhibitor, partial curve, poor fit]

Q: For CCOC(=O)c1cc(C)[nH]c(=S)c1C#N, which Potency is on record?
A: inactive

Q: With CCOC(=O)c1c(C)nc(C)c(C(=O)OCC)c1-c1ccc(O)c(OC)c1 as the molecule, how does the Potency read?
A: inconclusive: 25.1 µM [inhibitor, partial curve]

Q: Which Potency does the source give for COc1ccc(N2CCN(c3ncnc4scc(-c5ccc(F)cc5)c34)CC2)cc1 here?
A: inconclusive: 39.8 µM [inhibitor, partial curve]

Q: For CC1(C)CC(=O)C(N=Nc2cc(Cl)c(Cl)c(Cl)c2)=C(O)C1, which Potency is on record?
A: inconclusive: 25.1 µM [inhibitor, single point]

Q: Which Potency does the source give for CCOc1ccc(C2=NNC(c3cccs3)=Nc3ccc(OC)cc32)cc1 here?
A: inconclusive: 25.1 µM [inhibitor, partial curve, poor fit]

Q: For CC1CCc2c(sc(NC(=O)C3c4ccccc4Oc4ccccc43)c2C(N)=O)C1 (stereo unspecified), which Potency is on record?
A: inactive

Q: How did the Potency turn out when Cc1ccc2[nH]c(C(=O)N3CCCC(Nc4ccc(F)cc4)C3)cc2c1 (stereo unspecified) was run?
A: inconclusive: 50.1 µM [inhibitor, partial curve]

Q: With COC1=C(c2ccccc2)C(=O)c2ccccc2C1=O as the molecule, how does the Potency read?
A: inconclusive: 50.1 µM [inhibitor, partial curve]

Q: With O=C(Nc1ncc2c(n1)-c1ccccc1CC2)c1ccc(Cl)cc1 as the molecule, how does the Potency read?
A: inactive

Q: COc1ccc(CN(C)CC(=O)Nc2cccc(S(N)(=O)=O)c2)c(OC)c1OC was tested. Which Potency did it give?
A: inconclusive: 25.1 µM [inhibitor, single point]

Q: With COCCCNC(=O)c1ccc(-n2c(-c3ccccc3)cc3c2CCC(C)C3)cc1 (stereo unspecified) as the molecule, how does the Potency read?
A: inactive

Q: With O=C1COc2c1ccc(O)c2O as the molecule, how does the Potency read?
A: inconclusive: 44.7 µM [inhibitor, partial curve]

Q: For Cc1ccccc1N(C(=O)CNC(=O)c1ccco1)C(C(=O)NC1CCCC1)c1ccncc1 (stereo unspecified), which Potency is on record?
A: inactive

Q: How did the Potency turn out when Cc1ccc(NC(=O)CN2CCc3ccccc3C2)cc1S(=O)(=O)N(C)C was run?
A: inconclusive: 44.7 µM [inhibitor, partial curve]

Q: How did the Potency turn out when O=C(Nc1ccccc1)c1ccc(-c2ccc([N+](=O)[O-])cc2)o1 was run?
A: inconclusive: 79.4 µM [inhibitor, partial curve, poor fit]

Q: O=C(CN1CCN(c2ccc(F)cc2)CC1)NCc1cccs1 was tested. Which Potency did it give?
A: inconclusive: 56.2 µM [inhibitor, single point]

Q: With CCOc1ccc(N=C2C(=O)Nc3ccc(C)c(Br)c32)cc1 as the molecule, how does the Potency read?
A: inconclusive: 10 µM [inhibitor, partial curve, poor fit]

Q: CCn1ccnc1CN(C)Cc1cn(-c2ccc(C)cc2)nc1-c1cccc(C)c1 was tested. Which Potency did it give?
A: inconclusive: 39.8 µM [inhibitor, partial curve]

Q: Cc1cccc(OCCCCCn2ccnc2)c1 was tested. Which Potency did it give?
A: inconclusive: 35.5 µM [inhibitor, partial curve]

Q: For COc1ccc(CN(C)CC2CCCN(CCc3ccc(F)cc3)C2)cc1OC (stereo unspecified), which Potency is on record?
A: inactive

Q: How did the Potency turn out when COc1ccc(-c2nc(C#N)c(NCC3CCCO3)o2)cc1 (stereo unspecified) was run?
A: inconclusive: 100 µM [inhibitor, single point]

Q: For CN1c2ccccc2Sc2cc(N)ccc21, which Potency is on record?
A: inconclusive: 15.8 µM [inhibitor, full curve]

Q: For Cc1ccc(S(=O)(=O)Nc2c(O)ccc3ccccc23)cc1, which Potency is on record?
A: inconclusive: 50.1 µM [inhibitor, partial curve, poor fit]

Q: How did the Potency turn out when O=C(CSC(=S)N1CCCC1)c1cc(Br)cc(Br)c1O was run?
A: inconclusive: 11.2 µM [inhibitor, full curve]

Q: CC(C)C1Nc2ccc(C(=O)NCc3ccco3)cc2NC1=O (stereo unspecified) was tested. Which Potency did it give?
A: inactive

Q: COc1ccc(CN2CCC(=O)N([C@H](CO)c3ccccc3)CC2)cc1OC was tested. Which Potency did it give?
A: inactive
